Reference: PubChem BioAssay AID463173 (ICCB-Longwood Screening Facility, Harvard Medical School, 2010)
The whole screen tested about 52,000 compounds, of which about 4,300 (8.3%) were called active. No stated cut-off is given here; in the data, active means survival mostly below about 52% (no sharp cut-off); inactive means mostly above about 56%. This is one part of the list.

system: DeltatarO mutant; experiment: growth inhibition of S. aureus wild type versus tarO mutant, primary screen, teichoic acid synthesis inhibitors, RN4220, OD600 (AID 463173); conditions: OD600, 18 h, stronger effect = lower value, screened at 18.75 µg/mL (by protocol)

Compound	survival
COc1ccc(CNC(=O)CN2C(=O)COc3ccc(S(=O)(=O)N4CCCCCC4)cc32)cc1	inactive: 79%
COc1ccc(NC(=O)c2nn(C)c3c2CSc2ccc(C)cc2-3)cc1OC	inactive: 72%
Cc1ccc(C2Nc3ccccc3-n3c(-c4ccccc4)c4c(=O)n(C)c(=O)n(C)c4c32)cc1 (stereo unspecified)	active: 41%
Cc1ccc2c(c1)-c1c(cnn1CC(=O)N1CCN(c3cccc(C(F)(F)F)c3)CC1)CO2	inactive: 50%
CC(=O)N1CCCc2cc(S(=O)(=O)N3CCCC(C(=O)N4CCN(c5ccccc5F)CC4)C3)ccc21 (stereo unspecified)	inactive: 83%
CCc1cccc(C)c1NS(=O)(=O)c1ccc2c(c1)NC(=O)C(C)C(=O)N2 (stereo unspecified)	inactive: 79%
CCOc1ccc(-n2c(=O)c3c4c(sc3n(CC(=O)NCCCOC)c2=O)CCCCC4)cc1	inactive: 119%
O=C(c1nn2c(c1Cl)NC(c1cccs1)CC2C(F)(F)F)N1CCOCC1 (stereo unspecified)	inactive: 77%
Cc1nc(SCC(=O)OC(C)(C)C)c2c3c(sc2n1)CCCC3	active: 7%
COc1ccc(C(=O)COC(=O)CCCC(=O)Nc2ccc(C(C)=O)cc2)cc1	inactive: 73%
CCOc1ccc(-n2nc(CO)c(C(=O)NCC(c3ccccc3)c3ccccc3)n2)cc1	inactive: 48%
Cc1nc2cccnc2n1C1CCN(C(=O)Nc2ccccc2C(F)(F)F)CC1	inactive: 96%
CNS(=O)(=O)c1cn(CC(=O)N2CCN(c3ccc(Cl)cc3)CC2)cc1S(=O)(=O)NC	inactive: 106%
COc1cc(C)nc(Oc2ccc(OCCOc3ccccc3)nn2)n1	inactive: 95%
O=C(NCc1ccccc1)c1cccc(N2CCCS2(=O)=O)c1	inactive: 99%
COc1ccc(-c2cn3nc(N4CCCC(C(=O)Nc5cc(Cl)ccc5OC)C4)sc3n2)cc1 (stereo unspecified)	inactive: 80%
Cc1ccc(CNC(=O)c2c(-c3ccc(F)cc3F)noc2C)o1	inactive: 77%
Cc1cc(C)c(NC(=O)Cn2nnc(C(=O)NCc3cccs3)c2N)c(C)c1	inactive: 91%
COc1ccc(CC(=O)NCC(c2ccc(N(C)C)cc2)N2CCOCC2)cc1OC (stereo unspecified)	inactive: 92%

Compound	survival
Cc1ccccc1OCc1ccc(-c2nc(C#N)c(N3CCCCC3)o2)o1	inactive: 99%
COc1cc(NC(=O)Cn2c(=O)n(-c3ccccc3)c(=O)c3c4c(sc32)CCCC4)cc(OC)c1	inactive: 105%
CCCCNC(=O)c1cnn2c(C)c(Cc3c(C)cc(C)cc3C)c(C)nc12	inactive: 102%
CC(C)COc1ccc(C(=O)Nc2scc(-c3ccc(Br)cc3)c2C(=O)OC(C)C)cc1	inactive: 53%
CCOC(=O)c1cc2c(=O)n3ccccc3nc2n(Cc2ccco2)c1=NC(=O)c1ccc(OC)cc1	active: 34%
Cc1cccc(OCC(=O)Nc2cccc(C(=O)OCc3cc(=O)n4c(C)csc4n3)c2)c1	active: -5%
O=C(CSc1nccn1Cc1ccc(F)cc1)NCc1ccccc1	inactive: 90%
COc1ccc(S(=O)(=O)N(CC(=O)NCCSc2ccccc2)c2ccc(Cl)cc2)cc1	inactive: 56%
CCc1cccc(N2C(=O)CSC23C(=O)N(Cc2ccccc2F)c2ccccc23)c1 (stereo unspecified)	inactive: 71%
COc1ccc(-n2ncc(C(=O)NCc3ccc4c(c3)OCO4)c2C2CCN(C(=O)OC(C)(C)C)CC2)cc1	inactive: 115%
CCCCn1c(SCC(=O)NC(C)(C)C)nnc1-c1ccncc1	inactive: 72%
CC(N)c1ccc2c(c1)OCCO2 (stereo unspecified)	inactive: 98%
COc1ccc(-c2cn3nc(SCC(=O)Nc4ccccc4F)ccc3n2)cc1	inactive: 98%
Cc1cc(C)c(NC(=O)COCc2cc(-c3cccs3)on2)c(C)c1	inactive: 83%
COC(=O)c1scc(-c2ccc(C)cc2)c1S(=O)(=O)Nc1ccc(NC(C)=O)cc1	inactive: 128%
COc1ccc2c(c1)NC(c1ccc(F)cc1)=NC(c1ccc(F)cc1)=N2	inactive: 97%
CCCNC(=O)C1CCN(S(C)(=O)=O)CC1	inactive: 102%
CCOC(=O)c1cccc(NS(=O)(=O)c2cc(Br)cc3c2N(C(=O)C2CC2)CC3)c1	inactive: 115%
Cc1ccc(/C=C/c2onc(C)c2S(=O)(=O)N2CCC(C(=O)NCc3ccco3)CC2)cc1	inactive: 74%

Compound	survival
CCN(CC)c1ccc(NC(=O)CN2C(=O)c3cccnc3Oc3ccccc32)c(C)c1	inactive: 116%
Cc1cc(C)cc(NS(=O)(=O)c2ccc(-c3cc(C)no3)cc2)c1	inactive: 55%
Cc1ccc(CCNC(=O)c2ccc3c(c2)N(Cc2cc(C)ccc2C)C(=O)c2ccccc2S3=O)cc1 (stereo unspecified)	inactive: 56%
CCCCC(=O)Nc1ccc(NC(=O)C2CC2)nc1	inactive: 75%
CCCCN(Cc1ccccc1)S(=O)(=O)c1ccc2c(c1)CCN2C(=O)C1CCC1	inactive: 86%
CCCSCCCNC(=O)C1CCCN(C(=O)c2cnn(-c3ccccc3)c2-n2cccc2)C1 (stereo unspecified)	inactive: 91%
O=C(Cn1nc(Cc2cccnc2)c2ccccc2c1=O)N1CCN(c2ccc(F)cc2)CC1	inactive: 79%
COC(=O)c1ccc(OCC2c3cc(OC)c(OC)cc3CCN2C(=O)c2cccc(C)c2)cc1 (stereo unspecified)	inactive: 94%
COc1ccc(NC(=O)C2CCN(C3=NS(=O)(=O)C(c4ccc(C)c(C)c4)=C3C)CC2)cc1OC	inactive: 82%
COc1cccc(N2CCN(C(=O)CN3CCSc4ccc(S(=O)(=O)N(C)C)cc43)CC2)c1	inactive: 87%
CCn1nnnc1SCC(=O)c1ccc(NC(C)=O)cc1	inactive: 86%
COc1ccc(CNC(=O)CCS(=O)(=O)c2cc(Br)cc3c2N(C(=O)C2CC2)CC3)cc1	inactive: 90%
Cc1cc(C)c(NC(=O)CN2C(=O)c3cccnc3Oc3ccc(Cl)cc32)c(C)c1	inactive: 95%
O=C(Cc1ccc(Cl)cc1)NCCN1CCOCC1	inactive: 91%
Cc1cc(Nc2ccc(C)c(Cl)c2)n2nc(-c3ccccc3)nc2n1	inactive: 57%
Cc1ccc(C(=O)N2c3nc(-c4ccco4)nn3C3(CCCCC3)[C@@H]3CCCC[C@@H]32)cc1	active: 59%
NC(=O)CCN1CCOCC1	inactive: 100%
CC1CCN(S(=O)(=O)c2cccc(C(=O)NC3CCS(=O)(=O)C3)c2)CC1 (stereo unspecified)	inactive: 81%
